The supplement of paper PMC11417369
The other results are listed elsewhere or left out.

The sequences below were run on PF3D7_0420300 AP2 domain 1 (GST-tagged) (assay: gcPBM binding intensity (ln(normalized median fluorescence intensity)); higher = stronger DNA binding).
Method in brief: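 GST-tagged P. falciparum DNA-binding domains, expressed in E. coli (about 25 μg on average), were applied for 1 h to an Agilent 4 × 180k array of primer-extended double-stranded 36-bp intergenic genomic probes plus negative controls. The binding buffer was 1× PBS with 1% milk, 0.2 mg/ml BSA, 0.5% salmon testes DNA and 0.03% Triton X-100. Bound protein was detected with Alexa488 anti-GST antibody and scanned at 488 nm. Binding intensity is the highest Masliner-normalised natural-log median intensity across replicate spots of either probe orientation.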

Sequence | gcPBM binding intensity (ln)
TATATTACTTTGTGTTGTACGGAAATATATATATAT [XGTACX_site4309] | 9.24
AATATTCAATATATATATATATATAATATTAATATA [GTGCAC_negctrl_site571] | 9.05
ATATTTTATTTAATTACACACAATATTGCAATTTGT [CACACA_site669] | 9.64
AAGGATTTTTTATACACACACTAACTAATGTATATA [CACACA_site7163] | 9.57
TAATACCATAACAAGTGTACATAAATAATTATTGTA [XGTACX_site4949] | 9.52
ATCAACATTATGGTTAGTACTTAGTGAATTGTTAAT [XGTACX_site4926] | 9.19
GTGTAATATATTTTTCGTACATATTATATATATATA [XGTACX_site1675] | 9.5
TTATACACCTTTCATTGTACATATAATTTATATTCT [XGTACX_site8685] | 9.39
TCTTCTAATTTACCTACACACAGGAGATATATAAAT [CACACA_site6276] | 9.37
TATATATATATATATTGTACAAAATATTTATATGTT [XGTACX_site436] | 9.18
GTTCATAAATTAAACACACACACACCCCTGGATACC [CACACA_site3331] | 10.2
TAATTAATTTATTAGTTGCACTGTACCATTAGAGTA | 8.98
TTTTTCAGAAAAGAAACACACATATTTATATTTATA [CACACA_site7167] | 9.07
TATATGTATATATATTAACACACAAAAAAAAAAAAA [CACACA_site8534] | 9.4
TAAACAAATAAATAAACACACAATATCTGTATTTAT [CACACA_site5978] | 9.5
TTAAAATAAAGTAGTGGTACAAAAAAAAAAAAAAAA [XGTACX_site6322] | 9
ATTAAATCGATATATACACACATGTTTGGTATATTC [CACACA_site7285] | 9.53
TAACCTATAATATTCACACACATATAAATATTATAG [CACACA_site6592] | 9.46
AGTAATAGTTTGTGCACACTCAAGTATATCATATAT [CACACA_site4034] | 9.62

Sequence | gcPBM binding intensity (ln)
TTTTACTTAAAACACACACACACAAAAAAAAAAAAA [CACACA_site947] | 9.96
AAAAAAAATATAATATGTACATATCTATATATCAAC [XGTACX_site4881] | 9.38
TATACATATGAAAATACACACATACATACAGATATA [CACACA_site5002] | 9.82
TTGTTTTTAATATCGGTGCAATGGAAAGAAAAGAAG [GTGCAC_site9494] | 9.22
AAAAATAATCATTAGGTGCAAAAAATATATATATAT [GTGCAC_site9631] | 9.52
TACGTAAAATAATTGAGTACATAATTATATATATAT [XGTACX_site5361] | 9.29
AGAAAAATTATTTTGCGTACATATTTACAATAAAAA [XGTACX_site2144] | 9.02
AACAAATATATATGTAGTACATGTTGTAGATAATTT [XGTACX_site24] | 9.42
TTTTTTTTTTTAAATTCACACAATATATAAATATTG [CACACA_site5201] | 9.01
TAAAGCATATTATAAACACACACTGTATAAAGATAT [CACACA_site296] | 9.7
GTACATTATTTATATACACACAAAGAAAAATATACA [CACACA_site3452] | 9.69
TTTAAAATATATAGTACACACGTGAACACAAATACA [CACACA_site4392] | 9.54
GAATACATAATAACATGTACACACATTCTTCTATAA [XGTACX_site8725] | 9.49
TATATATATAGAAATGCATGTTAATAAAAGTTATAA [TGCATGCA_site947] | 9.21
TATCATAAAAAATATACACACAAAGGATATTTATAT [CACACA_site6841] | 9.64
TATGAACACCAACACACACACAAAAAAAAAAAAAAA [CACACA_site2013] | 9.61
AGATAAAAAAAGTACACACACACATATATTTATATA [CACACA_site7437] | 10.1
TTTTTTATTTTAAAAACATGCATAAAATATAATAGT [TGCATGCA_site762] | 9.05
TATATATTTAATTTCACACATATATATAATTATTAT [CACACA_site4936] | 9.37

Sequence | gcPBM binding intensity (ln)
ATATTATATATAAAATGTACATTTAAAAATATTATA [XGTACX_site889] | 9.09
ATACACACTTAAAAAAGTACTTAACTACATGAATTG [XGTACX_site1203] | 9.36
TTTTTTATTTTGTGCACACACATAAAAATATATATA [CACACA_site761] | 9.5
TTTTTTTTTTTTTAAACATGCATAATAAATATAATA [TGCATGCA_site265] | 8.88
TATTTATTTATGGACACACATACAAATCTTCCAGAC [CACACA_site942] | 9.55
TAATCATAACTTGATACGCACACGTTATATAAATAA [CACACA_site1579] | 9.02
TTGTTTTCTTATTATTACTACAATACTTAAGTCAGA [TGCATGCA_negctrl_site184] | 9.1
TTTTGTTGGATACAAAAATTACAAATTATTTAAAAA [TGCATGCA_negctrl_site532] | 8.79
ATTCTTATAACAAGAAGTACAAATATATGTATATAT [XGTACX_site4528] | 9.1
TTTTTTTTTAAGATGAAGATCAATATATAAATATAT [CACACA_negctrl_site1538] | 8.69
AGAATATCAAAATAAAGTACATTTATTATATATATG [XGTACX_site7100] | 9.25
TTTTCTCTCAAAAAATGTACATAATATATATATTTT [XGTACX_site4861] | 9.03
AAAAAAAAAAAACATACACACATACATACCTATATA [CACACA_site6575] | 9.78
AACATCAATTTATTTTCTTACATTATACGATTCATG [CACACA_negctrl_site1300] | 9.17
AAAAAAAAATCAAAATGTACTTATTTTTATAATAAT [XGTACX_site4712] | 9.07
TAATTATGCCAACACACACACACACCCAACTAAAAA [CACACA_site8823] | 10.2
ATGATGTGCAAGAGTAGTACACAATTTTGGGTTTAT [XGTACX_site501] | 9.25
AAACATAAGAAACACACACACATATATATATATATA [CACACA_site3642] | 9.65
CCTTTTTTGTTTTATGCACACCATATAACCAAGGCT [CACACA_site7893] | 9.3
